Some of the results follow. Antibody binding of pooled human sera (four to six donors per pool; dilution not stated) to peptides of the Trypanosoma cruzi antigen TSSA on microarrays. Quantile-normalised fluorescence in arbitrary units, mean of duplicate arrays; higher = more binding. No active / inactive call. The uninfected pools are read here as the healthy donors of the same country. The strongest signals lie near the top of the scale (about 60,000).
Columns and labels:
Experiment in all cases: antibody binding signal (normalised fluorescence) (arbitrary fluorescence units); higher = stronger serum antibody binding to peptide
[1] = system: pooled sera of chronic Chagas disease patients, Argentina
Experimental: (§1)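 Microarray of 15-residue peptides over residues 30-55 of Trypanosoma cruzi TSSAII, each with 1 to 10 substitutions at naturally variable positions, probed with one serum pool per country.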

[2] = system: pooled sera of chronic Chagas disease patients, Bolivia
Experimental: as §1

[3] = system: pooled sera of chronic Chagas disease patients, Brazil
Experimental: as §1

[4] = system: pooled sera of chronic Chagas disease patients, Colombia
Experimental: as §1

[5] = system: pooled sera of chronic Chagas disease patients, Mexico
Experimental: as §1

[6] = system: pooled sera of chronic Chagas disease patients, USA
Experimental: as §1

[7] = system: pooled sera of uninfected people, Argentina
Experimental: as §1

[8] = system: pooled sera of uninfected people, Bolivia
Experimental: as §1

[9] = system: pooled sera of uninfected people, Brazil
Experimental: as §1

[10] = system: pooled sera of uninfected people, Mexico
Experimental: as §1

[11] = system: pooled sera of uninfected people, USA
Experimental: as §1

Sequence	antibody binding signal [1]	antibody binding signal [2]	antibody binding signal [3]	antibody binding signal [4]	antibody binding signal [5]	antibody binding signal [6]	antibody binding signal [7]	antibody binding signal [8]	antibody binding signal [9]	antibody binding signal [10]	antibody binding signal [11]
KENKTAAGGAPSPSG	185	216	209	2210	334	279	227	89.2	125	102	153
GKDNKTATGEAPSPS	17000	12800	15000	8690	6760	21300	337	254	169	101	159
PSGTEKKTAAGEAPS	12800	2940	4290	4350	4140	8820	792	782	203	310	588
TPPSGTENKTATGET	43800	38500	42600	400	2450	17700	1840	285	205	230	164
TDKKTAAGETPSPPG	276	360	353	456	351	3260	115	200	222	160	1110
EKKPATGGAPSPSGA	1420	915	1210	2490	1120	1800	451	1240	183	169	579
KAATGEAPSPSGASS	20200	18200	27700	168	2400	20500	235	108	121	89	208
KDKKPAAGGTPSPPG	153	198	154	1350	152	338	117	89.6	577	75	95.2
TPPSGTDKKTATGGA	13000	9050	25700	4630	21800	2150	711	176	187	450	279
KENKTAAGETPSPSG	200	236	338	688	224	2150	234	197	126	211	1680
GTDNKTATGEAPSPP	14600	30400	30200	275	318	21200	132	558	995	110	117
EKKPATGEAPSPPGA	45400	38000	47400	395	316	43800	936	978	314	306	784
SGKDKKTATGEAPSP	9530	4800	5040	629	487	15200	204	96	99.5	85	105
